Assay results published in the RNAGym collection of RNA variant scans (doi:10.1073/pnas.2313332121).
This sample is rich in variants without activity.

B1: TPR 5TU (parent)
chain: GGAUCUUCUCGAUCUAACAAAAAAGACAAAUCUGCCACAAAGCUUGAGAGCAUCUUCGGAUGCAGAGGCGGCAGCCUUCGGUGGCGCGAUAGCGCCAACGUUCUCAACUAUGACACGCAAAACGCGUGCUCCGUUGAAUGGAGUUUAUCAUG

Variants of: B1
Assay: polymerase ribozyme fitness, log enrichment relative to wild type (log ratio); higher = more active; in vitro selection for triplet polymerase activity
Outline: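 Fitness compares each genotype's enrichment to that of the wild type on a logarithmic scale, averaging replicates with inverse-variance weights. The logarithm is base 2. Enrichment came from Illumina sequencing of input and output libraries after one triplicate round of in vitro selection, which included frozen incubation at −7 °C, of PCR-built, transcribed mutant libraries of each subunit of a heterodimeric triplet polymerase ribozyme. Only genotypes with ≥10 input reads and ≥1 read per output were kept.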

Row | Variant | polymerase ribozyme fitness (log ratio)
1 | A28U G50A C96G C118G U146C | ≤ -4.2
2 | A29G C96A G112C C116G A119C U148A | ≤ -4.2
3 | A28U A40C C75U G83U G133A | ≤ -4.2
4 | A28U A49C A52C G83U G94C C149A | ≤ -4.2
5 | A28U G84U U102G A110G C114G U134A | ≤ -4.2
6 | A29U A39U A47C U55A A110U C125A G128A | ≤ -4.2
7 | A28U G42C U55A U56A A60C G62A A97U U102A C105G A121G C123G U146G | ≤ -4.2
8 | A29G A49U A60C A91G G140C | ≤ -4.2
9 | A29G A30U C43U G50A G67U C79G G88U C99A G141A | ≤ -4.2
10 | A28U C85A C93G C96G | ≤ -4.2
11 | A29C C35G C54A A73U G86U U148C | ≤ -4.2
12 | A29C C38G G46C C79U G124A U130G U135G G140C | ≤ -4.2
13 | A29C G70C U77A G88A A142U | ≤ -4.2
14 | A29G C35G A64U C95G C125U U134C G152U | ≤ -4.2
15 | A28U A49C C96U G136A | ≤ -4.2
16 | A29C C35U A91G G94A C114A U146A | ≤ -4.2
17 | A29C C95G | ≤ -4.2
18 | A28U U31G C43A C54A A150G | ≤ -4.2
19 | A28U G68U C76U C96A | ≤ -4.2
20 | A29C A47U C79G C95A C99U | ≤ -4.2
21 | A29U A37C G80A G88C G133U | ≤ -4.2

Row | Variant | polymerase ribozyme fitness (log ratio)
22 | A29G U45A A64G G68U C85A U139G | ≤ -4.2
23 | A28U U31G C51U U78A | ≤ -4.2
24 | A29C G48C C79A A122G G124U U144A U145G G152U | ≤ -4.2
25 | A28G U45A G48C C87A A107G G136A | ≤ -4.2
26 | A28U A49C G58C | ≤ -4.2
27 | A29G A52C C57U C93U A113U C129G C132G | ≤ -4.2
28 | A29C A91C C93A G117U U145A | ≤ -4.2
29 | A28U U31G A39U A91U C99G C114U | ≤ -4.2
30 | A29G G42A G65U C114G | ≤ -4.2
31 | A28U A40G C51A G58A C85A C131A | ≤ -4.2
32 | A29G G81C U134A | ≤ -4.2
33 | A28G U53A G84U G140A | ≤ -4.2
34 | A28U C32A A52G C57G G83U C108U | ≤ -4.2
35 | A29C C57U U61A G92U U102G | ≤ -4.2
36 | A28U C87A C131G | ≤ -4.2
37 | A28U C105A A137C | ≤ -4.2
38 | A28U A29U G74C C79G A89C C118A A120U A122G C125G | ≤ -4.2
39 | A29U A47C C54U G84C G94A C96A G117C A121C G140U | ≤ -4.2
40 | A29C C57G G128C | ≤ -4.2
41 | A28U C57G C63U G81A G88U C105G C114G U145G | ≤ -4.2
42 | A29U A40G | -4.2

Row | Variant | polymerase ribozyme fitness (log ratio)
43 | A28U U44A U61A G86U A122U U135G U139G | ≤ -4.2
44 | A29C A49C G74U C95G C118U A150G G152U | ≤ -4.2
45 | A28U U53A C105U A115G A142C U151G G152C | ≤ -4.2
46 | A29G G67U C87U U145A | ≤ -4.2
47 | A29G C35G U44A U61A G67A G92U | ≤ -4.2
48 | A29C G92U G136A | ≤ -4.2
49 | A28U C57G U78A G83A G128U | ≤ -4.2
50 | A28U C96U U134A | ≤ -4.2
51 | A28U G59A C69U C93U A97C | ≤ -4.2
52 | A29G G136A U145G | ≤ -4.2
53 | A28U G50C C54U C95A A107U G143U | ≤ -4.2
54 | A28G G84U A98C | ≤ -4.2
55 | A28U U45A U55A U56A A73U G86C U139G | ≤ -4.2
56 | A28U C43U A52G U55A C79G | ≤ -4.2
57 | A28U C51A C85U A115U G143U | ≤ -4.2
58 | A29U A30G C116A G133C | ≤ -4.2
59 | A28U G48C C54U G74U U77A G86U A98U C103G | ≤ -4.2
60 | A28U C103A U111C | ≤ -4.2
61 | A28U C54G A91G C99G | ≤ -4.2
62 | A29G A41C U45G G68A G84A G100A A107U A150G | ≤ -4.2
63 | A29G G81U A107C | ≤ -4.2

Row | Variant | polymerase ribozyme fitness (log ratio)
64 | A28U U53A A73U A120U G128C U130A | ≤ -4.2
65 | A29C G65C C87U G92A | ≤ -4.2
66 | A29G G74A G92U G117A | ≤ -4.2
67 | A28U A29C A39C U56A G67A G86A C87U G94U A122U U135C | ≤ -4.2
68 | A29G A47U G58C A73G C85U C93U | ≤ -4.2
69 | A29C G83A | ≤ -4.2
70 | A28U C38U U55A A60G G83A U102A A122C U151G | ≤ -4.2
71 | A28U C32U G58A C93G A97G U127G A138C | ≤ -4.2
72 | A29G G50A A52C U101G G133C | ≤ -4.2
73 | A29C G84A | -4.17
74 | A29C G84C | ≤ -4.2
75 | A29G A49C G92U A137U A142U | ≤ -4.2
76 | A29G A37C G58A C95U | ≤ -4.2
77 | A29C C85U | -3.79
78 | A29C C85A | ≤ -4.2
79 | A29C A52C C54U U82C U90A G136A | ≤ -4.2
80 | A29C C79G C116G | ≤ -4.2
81 | A29C A41G A122G G143A | ≤ -4.2
82 | A28U U55G G81U C95A | ≤ -4.2
83 | A29C A37G A47G A52C G140U | ≤ -4.2
84 | A28G U33C G42A A52C G83C | ≤ -4.2
